According to the supplement of paper PMC4967469:
The IC50 comes from the fitted curve, where viability falls to half of the control; fits outside the tested doses are given as limits. The AUC spans the tested range (256-fold, ending at the top dose) of the same fit; the more sensitive the line, the further below 1. An inferred top dose was calculated from the reported fits.

What was measured:
Assay in all cases: Viability of human cancer cell lines after 72 h of drug (GDSC screen)
[1] = compound: CNCc1ccc(-c2[nH]c3cc(F)cc4c3c2CCNC4=O)cc1 [AG-014699]; conditions: top dose 5 µM; top dose inferred
Description: (§1)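 Human cancer cell lines in 384-well plates, medium with 10% serum, drug for 72 h over a 256-fold dose range (nine 2-fold or five 4-fold steps up to the top dose). Adherent lines were fixed and stained with the nucleic acid dye Syto60, suspension lines read with resazurin; signal relative to control wells, capped at 0 and 100%. One two-parameter sigmoid per drug and line, fitted in a mixed model over all curves with the slope shared within a line.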

[2] = compound: O=c1cc(CN2CCOCC2)occ1OCCCCCSc1ccnc2cc(C(F)(F)F)ccc12 [EHT 1864]; conditions: top dose 10 µM; top dose inferred
Description: as §1

[3] = compound: C=CC(=O)Nc1cc(NC(=O)c2ccc(C)c(NC(=O)c3ccno3)c2)cc(C(F)(F)F)c1 [QL-XI-92]; conditions: top dose 10.24 µM; top dose inferred
Description: as §1

[4] = compound: COc1cc2ncnc(Nc3cc(Br)c(O)c(Br)c3)c2cc1OC [WHI-P97]; conditions: top dose 10.24 µM; top dose inferred
Description: as §1

[5] = compound: COc1cc2nccc(Oc3ccc(NC(=O)C4(C(=O)Nc5ccc(F)cc5)CC4)cc3)c2cc1OC [XL-184]; conditions: top dose 5.12 µM; top dose inferred
Description: as §1

[6] = compound: O=c1cc(N2CCOCC2)oc2c(-c3cccc4c3sc3ccccc34)cccc12 [NU-7441]; conditions: top dose 2 µM; top dose inferred
Description: as §1

[7] = compound: N=C(N)NC(=N)NCCc1ccccc1 [Phenformin]; conditions: top dose 4000 µM; top dose inferred
Description: as §1

[8] = compound: CCC1=C[C@@H]2CN(C1)Cc1c([nH]c3ccccc13)[C@@](C(=O)OC)(c1cc3c(cc1OC)N(C)[C@H]1[C@@](O)(C(=O)OC)[C@H](OC(C)=O)[C@]4(CC)C=CCN5CC[C@]31[C@@H]54)C2 [Vinorelbine]; conditions: top dose 0.064 µM; top dose inferred
Description: as §1

Cell Line | AUC [1] | IC50 [1] [µM] | AUC [2] | IC50 [2] [µM] | AUC [3] | IC50 [3] [µM] | AUC [4] | IC50 [4] [µM] | AUC [5] | IC50 [5] [µM] | AUC [6] | IC50 [6] [µM] | AUC [7] | IC50 [7] [µM] | AUC [8] | IC50 [8] [µM]
NCI-H727 (lung carcinoid, adherent) | 0.946 | > 5 | 0.962 | > 10 | 0.959 | > 10.2 | 0.935 | > 10.2 | 0.977 | > 5.12 | 0.886 | > 2 | 0.907 | > 4000 | 0.88 | > 0.064
NCI-H2085 (lung adenocarcinoma, adherent) | 0.987 | > 5 | 0.986 | > 10 | 0.952 | > 10.2 | 0.874 | > 10.2 | 0.948 | > 5.12 | 0.972 | > 2 | 0.843 | 3170 | 0.885 | > 0.064
NUGC-3 (stomach, adherent) | 0.908 | > 5 | 0.979 | > 10 | 0.983 | > 10.2 | 0.923 | > 10.2 | 0.984 | > 5.12 | 0.93 | > 2 | 0.869 | > 4000 | 0.551 | 0.0056
OSC-19 (head and neck, adherent) | 0.987 | > 5 | 0.978 | > 10 | 0.987 | > 10.2 | 0.92 | > 10.2 | 0.902 | > 5.12 | 0.928 | > 2 | 0.823 | 2490 | 0.592 | 0.00724
OVCAR-3 (ovary, adherent) | 0.943 | > 5 | 0.969 | > 10 | 0.987 | > 10.2 | 0.986 | > 10.2 | 0.986 | > 5.12 | 0.966 | > 2 | 0.775 | 1750 | 0.564 | 0.00608
PANC-10-05 (pancreas, adherent) | 0.952 | > 5 | 0.916 | > 10 | 0.969 | > 10.2 | 0.93 | > 10.2 | 0.941 | > 5.12 | 0.943 | > 2 | 0.685 | 964 | 0.526 | 0.00481
PC-3 [JPC-3] (lung adenocarcinoma, adherent) | 0.924 | > 5 | 0.939 | > 10 | 0.967 | > 10.2 | 0.728 | 3.59 | 0.96 | > 5.12 | 0.981 | > 2 | 0.692 | 1040 | 0.758 | 0.0292
RERF-GC-1B (stomach, adherent) | 0.974 | > 5 | 0.93 | > 10 | 0.947 | > 10.2 | 0.976 | > 10.2 | 0.842 | 4.2 | 0.985 | > 2 | 0.955 | > 4000 | 0.653 | 0.0112
RT4 (bladder, adherent) | 0.987 | > 5 | 0.987 | > 10 | 0.974 | > 10.2 | 0.911 | > 10.2 | 0.748 | 1.73 | 0.983 | > 2 | 0.914 | > 4000 | 0.9 | > 0.064
SK-CO-1 (large intestine, adherent) | 0.988 | > 5 | 0.989 | > 10 | 0.989 | > 10.2 | 0.984 | > 10.2 | 0.986 | > 5.12 | 0.976 | > 2 | 0.734 | 1100 | 0.63 | 0.00892
SK-LU-1 (lung adenocarcinoma, adherent) | 0.943 | > 5 | 0.959 | > 10 | 0.946 | > 10.2 | 0.939 | > 10.2 | 0.924 | > 5.12 | 0.954 | > 2 | 0.846 | > 4000 | 0.755 | 0.0272
SK-N-AS (neuroblastoma, adherent) | 0.967 | > 5 | 0.947 | > 10 | 0.897 | > 10.2 | 0.978 | > 10.2 | 0.979 | > 5.12 | 0.981 | > 2 | 0.697 | 986 | 0.953 | > 0.064
SK-N-SH (neuroblastoma, adherent) | 0.986 | > 5 | 0.976 | > 10 | 0.94 | > 10.2 | 0.975 | > 10.2 | 0.937 | > 5.12 | 0.968 | > 2 | 0.878 | 3990 | 0.845 | 0.0456
SK-OV-3 (ovary, adherent) | 0.981 | > 5 | 0.976 | > 10 | 0.894 | > 10.2 | 0.931 | > 10.2 | 0.938 | > 5.12 | 0.978 | > 2 | 0.775 | 2000 | 0.612 | 0.0088
SNB75 (glioma, adherent) | 0.978 | > 5 | 0.977 | > 10 | 0.959 | > 10.2 | 0.979 | > 10.2 | 0.978 | > 5.12 | 0.961 | > 2 | 0.589 | 490 | 0.626 | 0.0104
SU-DHL-10 (B-cell lymphoma, suspension) | 0.995 | > 5 | 0.997 | > 10 | 0.954 | 9.91 | 0.998 | > 10.2 | 0.974 | > 5.12 | 0.97 | > 2 | 0.426 | 166 | 0.42 | 0.00257
SW48 (large intestine, adherent) | 0.968 | > 5 | 0.946 | > 10 | 0.986 | > 10.2 | 0.928 | > 10.2 | 0.92 | > 5.12 | 0.981 | > 2 | 0.803 | 1980 | 0.551 | 0.0055
